These results are taken from the supplement of paper PMC9446081.

Screen size: about 39,000 compounds; about 220 (0.56%) showed activity. The list shows a part of the results.
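Further: static incubation at 37 °C against the wild-type strain, values averaged over two biological replicates.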

The subject of this experiment is Escherichia coli K-12 BW25113. In words: relative growth (OD600 normalised to plate interquartile mean) (fraction); higher = less growth inhibition, active = 0.2 or less. The following applies: 50 µM; LB; incubation time: overnight (16-24 h).
Take `COc1ccc(S(=O)(=O)N[C@H]2CC[C@@H](CCNC(=O)CN3CCOCC3)O[C@H]2CO)cc1`: the relative growth is inactive: 0.986.
For the compound `CC(C)NC(=O)Nc1ccc2c(c1)C(=O)N([C@@H](C)CO)C[C@@H](C)[C@H](CN(C)S(=O)(=O)c1ccc(F)cc1)O2`, the relative growth was inactive: 0.981.
Turning to `C[C@H](CO)N1C[C@H](C)[C@@H](CN(C)S(C)(=O)=O)Oc2ccc(NC(=O)Nc3ccc(F)cc3)cc2C1=O`, the relative growth was inactive: 0.982.
The result for `CN1CCN(C(=O)C[C@H]2CC[C@@H](NC(=O)c3ccc4c(c3)OCO4)[C@H](CO)O2)CC1` reads inactive: 1.01; that for `COc1ccc(NC(=O)N(C)C[C@@H]2OCCCC[C@H](C)Oc3ccc(NS(=O)(=O)c4ccc(F)cc4)cc3C(=O)N([C@H](C)CO)C[C@H]2C)cc1`, inactive: 0.921; that for `C[C@@H]1CCCCO[C@H](CN(C)C(=O)Nc2ccc(F)cc2)[C@@H](C)CN([C@H](C)CO)C(=O)c2cc(NC(=O)Nc3ccc(C(F)(F)F)cc3)ccc2O1`, inactive: 0.993.
As to `C[C@H](CO)N1C[C@H](C)[C@H](CN(C)Cc2ccc(C(F)(F)F)cc2)OCCCC[C@H](C)Oc2ccc(NC(=O)Nc3ccc(C(F)(F)F)cc3)cc2C1=O`, the relative growth was inactive: 1.02.
Then `O=C(C[C@@H]1C[C@@H]2c3cc(NC(=O)C4CCOCC4)ccc3O[C@@H]2[C@H](CO)O1)NCc1ccc2c(c1)OCO2`, with inactive: 0.981; and `COc1ccc(NC(=O)N(C)C[C@@H]2OCc3ccccc3-c3c(n(C)c4ccccc34)C(=O)N([C@H](C)CO)C[C@@H]2C)c(OC)c1`, with inactive: 1.02; and `C[C@H]1CN([C@@H](C)CO)C(=O)Cc2cc(NC(=O)Nc3ccc(C(F)(F)F)cc3)ccc2O[C@H]1CN(C)Cc1ccncc1`, with inactive: 1.
In the case of `C/C=C/c1ccc2c(c1)O[C@@H](CN(C)S(=O)(=O)c1ccccc1OC)[C@@H](C)CN([C@@H](C)CO)S2(=O)=O`, the relative growth is inactive: 1.01.
`COc1cc(N2CCO[C@]3(COCCN(CCN(C)C)C3)C2)ncn1`: the relative growth was inactive: 1.01.
As for `C[C@@H]1CN([C@H](C)CO)S(=O)(=O)c2ccc(C#CC(C)(C)O)cc2O[C@H]1CN(C)Cc1ccncc1`, the relative growth was inactive: 0.986.
For the compound `C[C@@H]1CN([C@@H](C)CO)C(=O)CCCn2cc(nn2)CO[C@H]1CN(C)C(=O)Nc1ccc(C(C)(C)C)cc1`, the relative growth is inactive: 1.01.
With `COc1ccc(S(=O)(=O)Nc2ccc3c(c2)C(=O)N([C@H](C)CO)C[C@H](C)[C@@H](CN(C)Cc2ccc(C(F)(F)F)cc2)OCCCC[C@H](C)O3)cc1`, the relative growth was inactive: 0.899.
Then `COc1ccc(CN(C)C[C@H]2Oc3ccc(NS(C)(=O)=O)cc3CC(=O)N([C@@H](C)CO)C[C@H]2C)cc1`, with inactive: 0.844; and `C[C@H]1CN([C@@H](C)CO)C(=O)c2cccc(NS(C)(=O)=O)c2O[C@H]1CN(C)S(=O)(=O)c1cccs1`, with inactive: 0.987.
With `C[C@H](CO)N1C[C@H](C)[C@H](CN(C)Cc2ccc(C(=O)Nc3ccccc3N)cc2)Oc2c(NC(=O)C3CCCCC3)cccc2C1=O`, the relative growth is inactive: 1.
The result for `Cc1nc(S(=O)(=O)N[C@H]2CCS(=O)(=O)C2)cn1C` reads inactive: 1.02.
For the compound `C[C@@H]1CCCCO[C@@H](CN(C)S(=O)(=O)c2cn(C)cn2)[C@@H](C)CN([C@H](C)CO)C(=O)c2cc(NC(=O)Nc3ccc(C(F)(F)F)cc3)ccc2O1`, the relative growth is inactive: 1.02.
Consider `COc1cc(Cc2cc3c(c(CCc4ccccc4)n2)[Si](C(C)C)(C(C)C)O[C@H]3c2ccccc2)cc(OC)c1OC`, for which the relative growth is inactive: 0.989.
For the compound `C[C@H]1CCCCO[C@@H](CN(C)Cc2ccccc2)[C@@H](C)CN([C@@H](C)CO)C(=O)c2cc(NC(=O)c3ccncc3)ccc2O1`, the relative growth was inactive: 1.01.
Regarding `C[C@H]1CN([C@@H](C)CO)S(=O)(=O)c2ccc(-c3cccc(F)c3)cc2O[C@H]1CN(C)S(C)(=O)=O`, the relative growth is inactive: 1.01.
Consider `COc1ccc(NC(=O)Nc2ccc3c(c2)CC(=O)N([C@@H](C)CO)C[C@@H](C)[C@@H](CN(C)Cc2ccc(-c4ccccc4)cc2)O3)cc1`, for which the relative growth was inactive: 1.01.
Consider `CC[C@@H](NC)C(=O)O`, for which the relative growth is inactive: 0.991.
`NNS(=O)(=O)c1ccc(Cl)cc1`: the relative growth is inactive: 1.01.
Turning to `Cc1noc(C)c1S(=O)(=O)Nc1cccc2c1O[C@H](CN(C)S(=O)(=O)c1cccs1)[C@H](C)CN([C@@H](C)CO)C2=O`, the relative growth was inactive: 1.
The result for `CC(=O)C1CCC2C3CCC4=CC(=O)CCC4(C)C3CCC12C` (stereo not given) reads inactive: 0.904; that for `Cc1noc(C)c1NC(=O)N(C)C[C@H]1OCCCC[C@H](C)Oc2ccc(NC(=O)CCC(F)(F)F)cc2C(=O)N([C@@H](C)CO)C[C@@H]1C`, inactive: 0.992.
With `C[C@@H]1CN([C@H](C)CO)C(=O)c2cccc(NS(C)(=O)=O)c2O[C@@H]1CN(C)S(=O)(=O)c1cccs1`, the relative growth was inactive: 0.991.
With `CO[C@@H](CN(C)S(=O)(=O)c1ccc(C)cc1)[C@@H](C)CN([C@@H](C)CO)S(=O)(=O)c1cccc(Cl)c1`, the relative growth was inactive: 0.982.
Consider `Cc1ccc(S(=O)(=O)N(C)C[C@@H]2Oc3ncc(Br)cc3C(=O)N([C@H](C)CO)C[C@@H]2C)cc1`, for which the relative growth was inactive: 1.02.
For `Cc1cccc(S(=O)(=O)N2C[C@@H](O)COC[C@H]3O[C@@H](CC(=O)NCCCN4CCOCC4)CC[C@@H]32)c1`, the relative growth is inactive: 0.956.
The result for `COC(=O)C[C@H]1CC[C@@H]2[C@H](COC[C@H](O)CN2S(=O)(=O)c2ccccc2C)O1` reads inactive: 1; that for `Cc1cccnc1[C@@H](NC(=O)C1CCN(Cc2ccc(Cl)c(Cl)c2)CC1)c1ccc(Cl)cc1`, inactive: 1.01.
`C[C@@H]1CCCCO[C@@H](CN(C)Cc2ccccc2)[C@H](C)CN([C@@H](C)CO)C(=O)c2cc(NC(=O)C3CCCCC3)ccc2O1`: the relative growth is inactive: 1.02.
On to `C[C@@H]1CN([C@H](C)CO)C(=O)c2cccc(NC(=O)c3cnccn3)c2O[C@H]1CN(C)S(=O)(=O)c1ccccc1`, for which the relative growth was inactive: 0.973.
Then `COc1ccc(NC(=O)N(C)C[C@@H]2OCCCC[C@H](C)Oc3ccc(NC(=O)C4CCCCC4)cc3C(=O)N([C@H](C)CO)C[C@@H]2C)cc1`, with inactive: 1; and `COCC(=O)N1C[C@H](C)[C@@H](OC)CN(C)C(=O)c2cc(NC(=O)c3cc(C)on3)ccc2OC[C@H]1C`, with inactive: 0.979; and `C[C@H](CO)N1C[C@H](C)[C@@H](CN(C)Cc2ccc(Oc3ccccc3)cc2)Oc2c(NC(=O)c3nc4ccccc4s3)cccc2C1=O`, with inactive: 1.02.
The result for `C[C@@H]1CCCCO[C@@H](CN(C)Cc2ccccc2)[C@H](C)CN([C@@H](C)CO)C(=O)c2cc(NC(=O)Nc3ccccc3)ccc2O1` reads inactive: 0.981.
Consider `C=CCC[C@H](Cc1ccc(F)cc1)C(=O)OC[C@@H](NC(=O)[C@@H](CC=C)CC(=O)N[C@H](CO)Cc1ccccc1)C(C)(C)C`, for which the relative growth is inactive: 1.02.
Regarding `Cc1ccc(S(=O)(=O)Nc2ccc3c(c2)C(=O)N([C@H](C)CO)C[C@H](C)[C@H](CN(C)CC2CC2)O3)cc1`, the relative growth is inactive: 0.993.
Then `Cc1noc(C)c1NC(=O)N(C)C[C@@H]1Oc2ccc(NS(=O)(=O)c3cn(C)cn3)cc2CC(=O)N([C@H](C)CO)C[C@H]1C`, with inactive: 0.979; and `C[C@@H]1CCCCO[C@H](CN(C)CC2CCCCC2)[C@H](C)CN([C@H](C)CO)C(=O)c2cc(NC(=O)Nc3ccccc3)ccc2O1`, with inactive: 0.988.
Then `C[C@@H]1CN([C@@H](C)CO)C(=O)c2cc(NS(=O)(=O)c3ccc(Cl)cc3)ccc2O[C@@H](C)CCCCO[C@H]1CN(C)Cc1ccc2c(c1)OCO2`, with inactive: 0.992.
The result for `C[C@H]1CN([C@@H](C)CO)S(=O)(=O)c2ccc(C#Cc3ccccc3F)cc2O[C@@H]1CN(C)C(=O)c1ccc2c(c1)OCO2` reads inactive: 1.04; that for `CCS(=O)(=O)N1CC[C@]2(CC1)CN([C@H](CO)c1[nH]c3cc(ccc3c12)OC)C(=O)c1ccc(cc1)F`, inactive: 1; that for `COc1ccc2c(c1OC)C(=O)OC2C1c2c(cc3c(c2OC)OCO3)CCN1C.Cl` (stereo not given), active: 0.0513.
With `C[C@H]1CN([C@@H](C)CO)S(=O)(=O)c2ccc(C#CC3(O)CCCC3)cc2O[C@@H]1CN(C)C(=O)Cc1cccnc1`, the relative growth is inactive: 1.02.
`COc1ccc(S(=O)(=O)Nc2ccc3c(c2)C(=O)N([C@@H](C)CO)C[C@@H](C)[C@H](CN(C)C(=O)Nc2cccc4ccccc24)OCCCC[C@@H](C)O3)cc1`: the relative growth was inactive: 1.03.
On to `NCC(=O)OCc1ccccc1`, for which the relative growth was inactive: 0.993.
`O=C(C[C@@H]1CC[C@@H]2[C@H](COC[C@@H](O)CN2C(=O)Nc2ccc(Cl)cc2)O1)NC1Cc2ccccc2C1`: the relative growth is inactive: 0.935.
For the compound `Cn1nc(CCO)cc1C(F)(F)F`, the relative growth is inactive: 0.977.
On to `CC(C)NC(=O)Nc1ccc2c(c1)C(=O)N([C@H](C)CO)C[C@H](C)[C@@H](CN(C)Cc1ccc(-c3ccccc3)cc1)O2`, for which the relative growth was inactive: 0.997.
As to `COc1ccc(CN(C)C[C@@H]2OCCCC[C@H](C)Oc3ccc(NS(=O)(=O)c4ccc(F)cc4)cc3C(=O)N([C@H](C)CO)C[C@H]2C)cc1`, the relative growth was inactive: 0.899.
Consider `C[C@@H]1CCCCO[C@H](CN(C)S(=O)(=O)c2ccc(Cl)cc2)[C@H](C)CN([C@H](C)CO)C(=O)c2cc(NS(=O)(=O)c3cccs3)ccc2O1`, for which the relative growth was inactive: 1.01.
On to `C[C@@H]1CN([C@@H](C)CO)C(=O)c2cc(NC(=O)Cc3ccccc3)ccc2O[C@@H](C)CCCCO[C@H]1CN(C)Cc1ccc2c(c1)OCO2`, for which the relative growth was inactive: 0.993.
The result for `COc1cccc(NC(=O)N2C[C@H](O)COC[C@@H]3O[C@H](CC(=O)NC4Cc5ccccc5C4)CC[C@H]32)c1` reads inactive: 0.972.
Take `C[C@H](CO)N1C[C@H](C)[C@H](CN(C)Cc2ccc(C(=O)Nc3ccccc3N)cc2)Oc2c(NC(=O)Nc3ccc(C(F)(F)F)cc3)cccc2C1=O`: the relative growth is inactive: 1.05.
